Results published in the RNAGym collection of RNA variant scans (doi:10.1093/nar/gkz1192).
The source gives no read counts; variants with many changes may rest on few reads.

B1: CPEB3 Ribozyme (parent)
chain: UAACAGGGGGCCACAGCAGAAGCGUUCACGUCGCAGCCCCUGUCAGAUUCUGGUGAAUCUGCGAAUUCUGCUGUAUAUCUC

Variants of: B1
Assay: self-cleavage, relative activity (ratio to wild type); higher = more cleavage; in vitro, sequencing
In short: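 CPEB3 self-cleaving ribozyme mutant libraries were made by rounds of error-prone PCR, barcoded, and transcribed in vitro with T7 RNA polymerase for 5 hours at 37°C. Cleavage occurred during transcription and a 15 min DNase I step before EDTA stop. RNAs were reverse transcribed with template switching and Illumina-sequenced, with DNA sequencing mapping barcodes to variants. Relative activity is the variant's cleaved/total read fraction divided by wild type's (minimum 5 reads), averaged across three batches.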
U31G U43C U54C gave a self-cleavage of 0.18. For U31G U43C U69A, the self-cleavage was 0.17. Variant U31G U48C U69C has a self-cleavage of 0.23. Variant U31G U51A U72C has a self-cleavage of 0.6. For U31G U51C U58C, the self-cleavage was 0.14. Work on U31G U54A A64G C68U yielded a self-cleavage of 0.36. For U31G U60G A65G, the self-cleavage was 0.09. With U31G U66C G73A the self-cleavage was 0.23. For U31G U67C U78C U80C, the self-cleavage was 0.12. For U31G U69A U80C, the self-cleavage was 0.28. With C32A A35G A64U U67C the self-cleavage was 0.4. For C32A A35U A56G U69C A77G, the self-cleavage was 0.05. C32A A45G U66C showed a self-cleavage of 0.16. For C32A A45U U49C, the self-cleavage was 0.2. With C32A A45U U51C the self-cleavage was 0.12. For C32A A45U U80C, the self-cleavage was 0.19. With C32A A47G U48C G73C the self-cleavage was 0.24. C32A A56G G70A U74C showed a self-cleavage of 0.16. In the case of C32A A56G U74C, the self-cleavage is reported as 0.22. In the case of C32A A56U U76C, the self-cleavage is reported as 0.5. In the case of C32A A56U U78C, the self-cleavage is reported as 0.5. With C32A A57G U80A the self-cleavage was 0.1. Work on C32A A64G U66C yielded a self-cleavage of 0.19. Work on C32A A64U A65G yielded a self-cleavage of 0.12. With C32A C34A A45U the self-cleavage was 0.23. In the case of C32A C37A U54G U58A C71G, the self-cleavage is reported as 0.06. C32A C38A U51C A56U gave a self-cleavage of 0.22. For C32A C38G U41A, the self-cleavage was 0.3. With C32A C38U U51C the self-cleavage was 0.3. C32A C50U U51G gave a self-cleavage of 0.23. C32A G46U U66C gave a self-cleavage of 0.15. C32A G61C U78C gave a self-cleavage of 0.13. For C32A U41A C50U U51G U60C U67C, the self-cleavage was 0.05. In the case of C32A U41A U66C, the self-cleavage is reported as 0.21. C32A U41A U69A showed a self-cleavage of 0.08. For C32A U41C A45C, the self-cleavage was 0.16. C32A U41C A65G G73C gave a self-cleavage of 0.27. C32A U41C A75G U78C showed a self-cleavage of 0.08. For C32A U41C C62A, the self-cleavage was 0.09. C32A U41C G63A showed a self-cleavage of 0.3. C32A U41C U43C U78A U80C gave a self-cleavage of 0.09. For C32A U41G A57G, the self-cleavage was 0.07. In the case of C32A U41G U51C G63A A65G U74A, the self-cleavage is reported as 0.15. Work on C32A U43A A57G U60C A65G U66C U69C yielded a self-cleavage of 0.1. Variant C32A U43A U66C has a self-cleavage of 0.28. With C32A U43A U66C U74C the self-cleavage was 0.09. C32A U43C G52A U78A showed a self-cleavage of 0.08. C32A U43C U54C showed a self-cleavage of 0.15. For C32A U48C U54C U58C U67C U72A, the self-cleavage was 0.21. For C32A U48C U58G, the self-cleavage was 0.17. Variant C32A U48C U78C has a self-cleavage of 0.22. With C32A U49C U54A U72C the self-cleavage was 0.12. In the case of C32A U49C U74C U80C, the self-cleavage is reported as 0.06. For C32A U51A U72A, the self-cleavage was 0.11. For C32A U51C A56G U69C C71U, the self-cleavage was 0.06. Work on C32A U51C U72C yielded a self-cleavage of 0.08. Work on C32A U54A U69A yielded a self-cleavage of 0.17. Variant C32A U54A U80A has a self-cleavage of 0.24. Variant C32A U58C A64G has a self-cleavage of 0.09. C32A U60C A64G gave a self-cleavage of 0.1. Variant C32A U69A C81A has a self-cleavage of 0.06. With C32A U69C U74C the self-cleavage was 0.1. C32G A47U U72C A75G gave a self-cleavage of 0.09. With C32G A64G U74C the self-cleavage was 0.15. C32G C37G A57U U66A showed a self-cleavage of 0.06. C32G G36A A45G A47U U51A U69A gave a self-cleavage of 0.12. Variant C32G G46A A56G C59U has a self-cleavage of 0.07. C32G G52A A56G showed a self-cleavage of 0.1. C32G G73A U78A showed a self-cleavage of 0.07. Variant C32G U41A A47U A56G A57G U67A has a self-cleavage of 0.05. In the case of C32G U41A U60A U67A C81U, the self-cleavage is reported as 0.16. In the case of C32G U41A U69C, the self-cleavage is reported as 0.27. For C32G U41C A57U A65C, the self-cleavage was 0.08. Variant C32G U41G U69A U80A has a self-cleavage of 0.15. Variant C32G U48C C81U has a self-cleavage of 0.17. C32G U51C A56G U80A showed a self-cleavage of 0.08. In the case of C32G U54C G63A, the self-cleavage is reported as 0.15. Variant C32G U54C U76C U80C has a self-cleavage of 0.11. C32G U74C U78C gave a self-cleavage of 0.14. In the case of C32U A35C G63A U67C A75U, the self-cleavage is reported as 0.12. With C32U A35G A45U A56G the self-cleavage was 0.13. Work on C32U A35G A77U C79U yielded a self-cleavage of 0.59. C32U A35G C39A A64G U69C U72C U78C gave a self-cleavage of 0.04. Work on C32U A35G G36A yielded a self-cleavage of 0.41. C32U A35G U72G showed a self-cleavage of 0.09. C32U A35U U41A A45U A65G U67C gave a self-cleavage of 0.07. In the case of C32U A45G A64U U72A, the self-cleavage is reported as 0.08. In the case of C32U A45G C68U, the self-cleavage is reported as 0.23. In the case of C32U A45G U66C, the self-cleavage is reported as 0.3. With C32U A47C U72A the self-cleavage was 0.11. Variant C32U A47G U51G has a self-cleavage of 0.58. Variant C32U A47G U72A A77U has a self-cleavage of 0.05. With C32U A47U U78A the self-cleavage was 0.18. C32U A56C U66C U72C gave a self-cleavage of 0.08. Work on C32U A56G A57U A64G yielded a self-cleavage of 0.12. For C32U A56G U60A, the self-cleavage was 0.31. Variant C32U A56G U72A has a self-cleavage of 0.14. C32U A56G U72C showed a self-cleavage of 0.17. In the case of C32U A56U U72A, the self-cleavage is reported as 0.14. Variant C32U A64U U67C has a self-cleavage of 0.15. In the case of C32U A65G U72A, the self-cleavage is reported as 0.06. Work on C32U C34G G61A yielded a self-cleavage of 0.07. Variant C32U C34U U69A has a self-cleavage of 0.36. Variant C32U C34U U74G has a self-cleavage of 0.24. With C32U C37A U43A U72A the self-cleavage was 0.07. With C32U C38A A65U the self-cleavage was 0.11. C32U C40A A64G showed a self-cleavage of 0.12. C32U C40U U67G showed a self-cleavage of 0.13. In the case of C32U C71U A75G U80C, the self-cleavage is reported as 0.11. With C32U G36A C40A G53C the self-cleavage was 0.07. In the case of C32U G36C A45U U66C, the self-cleavage is reported as 0.11. Variant C32U G36U C50A U66C has a self-cleavage of 0.12. Work on C32U G46A U51C yielded a self-cleavage of 0.16. With C32U G46A U78A the self-cleavage was 0.19. Variant C32U U41A U48C U58C C79U has a self-cleavage of 0.07. In the case of C32U U41A U69A U74A U78C, the self-cleavage is reported as 0.06. Variant C32U U41C C62G U72C has a self-cleavage of 0.19. C32U U41C U43C A56U A57G showed a self-cleavage of 0.16. In the case of C32U U41C U51C A75G U76C, the self-cleavage is reported as 0.25. In the case of C32U U43A A45G G55U, the self-cleavage is reported as 0.17. Work on C32U U43C U72C yielded a self-cleavage of 0.12. With C32U U43G A75G U76C the self-cleavage was 0.12. Variant C32U U43G U66C U76C has a self-cleavage of 0.07. Variant C32U U48A A56G has a self-cleavage of 0.11. Variant C32U U48C C62A A64G has a self-cleavage of 0.08. With C32U U48C C68G the self-cleavage was 0.14. In the case of C32U U48C C68G U69C U76C, the self-cleavage is reported as 0.12. For C32U U48C U54A U67A, the self-cleavage was 0.12. For C32U U48C U66C U69A, the self-cleavage was 0.21. C32U U48G U54C gave a self-cleavage of 0.13. In the case of C32U U49A A64U U66C, the self-cleavage is reported as 0.1. C32U U49A C71U showed a self-cleavage of 0.13. Variant C32U U49C C68U has a self-cleavage of 0.05. With C32U U49C U60C U74A A77G the self-cleavage was 0.2. For C32U U51C A77G, the self-cleavage was 0.19. In the case of C32U U51G A56G, the self-cleavage is reported as 0.2. C32U U54A U58C gave a self-cleavage of 0.19. C32U U54C U58C gave a self-cleavage of 0.34. With C32U U58C U67C U69C C81U the self-cleavage was 0.15. In the case of C32U U58C U78A, the self-cleavage is reported as 0.15. With C32U U60A U69C the self-cleavage was 0.12. C32U U60C U69C U72A G73C U74A showed a self-cleavage of 0.04. In the case of C32U U72C U74C, the self-cleavage is reported as 0.27. For G33A A35C A65G U74A, the self-cleavage was 0.07. G33A A35C U43A A56U U72C gave a self-cleavage of 0.08. In the case of G33A A35G A64U, the self-cleavage is reported as 0.11. With G33A A35G G42A A47G U48C U51C the self-cleavage was 0.05. Variant G33A A35G U41A A77U has a self-cleavage of 0.36. With G33A A35G U43C U51A U60C A64G the self-cleavage was 0.08. With G33A A35G U49C A57U U80C the self-cleavage was 0.01. In the case of G33A A35G U51C, the self-cleavage is reported as 0.5. G33A A35G U67C U76C gave a self-cleavage of 0.33. In the case of G33A A35U A64G, the self-cleavage is reported as 0.23. For G33A A35U U41A U60G, the self-cleavage was 0.16. For G33A A35U U41C U69G, the self-cleavage was 0.08. G33A A45G U48A A64G showed a self-cleavage of 0.15. G33A A45U A56G showed a self-cleavage of 0.17. For G33A A45U U54C, the self-cleavage was 0.15. For G33A A45U U69A, the self-cleavage was 0.17. For G33A A47G A57G A64G, the self-cleavage was 0.06. Variant G33A A47G A57U has a self-cleavage of 0.07. Work on G33A A47G A77G yielded a self-cleavage of 0.41. Variant G33A A47G A77U has a self-cleavage of 0.38. For G33A A47G C71G, the self-cleavage was 0.19. G33A A47G G52A U60A G63U gave a self-cleavage of 0.13. G33A A47G U48C U66C gave a self-cleavage of 0.12. For G33A A47G U49C U60C, the self-cleavage was 0.39.
